# The source gives no read counts; variants with many changes may rest on few reads.
# B1: LINE1-mini (parent)
# chain: GGCAGAGCUCAACACAGCGUGGCAAAGUGGCUGUGGCUAGACUGCC
# Variants of: B1
# Experiment: self-cleavage, relative activity (ratio to wild type); higher = more cleavage; in vitro, sequencing; the parent is a self-cleaving ribozyme
row,Variant,self-cleavage
1,C13A A14C U28G G36C,0.01
2,A12U U34G G40U,0.04
3,A12U G33U C46U,0.03
4,C13A C15G C45A,0.03
5,A12U G22A G29U C42U,0.1
6,C13A C18A G21U,0.09
7,C13A G27A C37G,0.02
8,C13A A25U G27C G40U,0.1
9,C13A G22C G27U G40A A41G,0.04
10,C13A C18A G21A G40C,0.02
11,C13A A16U C45G C46A,0.07
12,C13A G19C C31G,0.05
13,A12U G22A G27A U38G,0
14,C13A G19A C23G C37G,0.01
15,C13A A24C G29C,0.05
16,C13A A16U G22A,0.1
17,C13A C23G A24G,0.02
18,C13A C15G C18A U20A A24U A25G,0.01
19,A12U U20C G22A U28G,0.08
20,C13A G22C A26U U32C U34C,0.02
21,C13A U28A G40A C46A,0.09
22,C13A A24C A26C G36C C46A,0.06
23,A12U G30C C42U,0.13
24,C13A U32C A39G C42G C46U,0.01

row,Variant,self-cleavage
1,A12U U32C G40A,0.12
2,C13A A14G C15U C31G G33A,0.02
3,A12U G17A G27A G35C C46A,0.01
4,C13A A14C G36C U43G,0
5,A12U U20C U38A C46A,0.13
6,A12U U20A U28A C42G,0
7,A12U G22C C37A,0.02
8,C13A C23U A26G C42G,0
9,A12U G17U C23G G44U,0.02
10,C13A G17C G40A A41G,0.04
11,A12U G21U G35A C46A,0.12
12,C13A U32G C45A,0.01
13,C13A C18U U28G,0.03
14,A12U G19C G35A C37A,0
15,C13A A25U G33A U38G A39G C42G,0.02
16,C13A G22C C46A,0.01
17,C13A A16C G17A G36A A39G,0.03
18,C13A C15G U28C A41G C45U,0.01
19,C13A U28G G40U,0.06
20,A12U G22C A41G,0.02
21,C13A C37U G40C C45U,0.13
22,C13A A16U G44C,0.04
23,C13A C18U G40A G44A,0.03
24,C13A C18U U20G C23A G29U C45U,0.02

row,Variant,self-cleavage
1,A12U G17A C37A A41G,0.04
2,C13A C23U A24G G30A C45A,0.29
3,C13A A24G G40U C46A,0
4,A12U G27C G29U C37U G40A U43A,0.02
5,C13A G22C C37U C42A,0.03
6,C13A G21U G29A G36C,0.1
7,A12U U34G C45U,0
8,C13A A16U G33U G35C U43G,0.04
9,A12U G27A C37A C42U,0.02
10,C13A C15G G17C U38G,0.02
11,C13A G19A U20A A26C C46A,0.01
12,C13A C18G U32A U43C,0.1
13,C13A A16U G19A G21C C45A C46G,0.02
14,A12U C37U U38G C42G,0
15,C13A G19U U34C G36A A39C C42U,0.02
16,C13A G21U C31G C37A,0.04
17,C13A A24G G29A,0.19
18,A12U G29C G33A U38G,0
19,C13A G17U C23A A24U C45U,0.02
20,C13A G19A G29U U43A,0.09
21,A12U G40U C45U,0.34
22,A12U G17A U20A G36C,0.01
23,A12U G19U A26U G33C,0.02
24,A12U G19A U20G G27C U34C G44U,0.01

row,Variant,self-cleavage
1,C13A A16C C18A U34A,0.02
2,C13A C23A A26C,0.21
3,A12U G19U A24C A25C G30U C31G C46A,0.01
4,C13A A14U A16U U28A,0.1
5,A12U G19U A39C,0.16
6,C13A G29U U32A G44U,0.02
7,A12U G21C A26U C45U,0.14
8,A12U G17U C37U G40U,0.03
9,C13A G33C C46U,0.04
10,A12U G29C G35U U38G,0.01
11,C13A C42A C45A,0.06
12,A12U G21C A41G,0.06
13,C13A A14U G17A G33U U38A A39U,0.04
14,A12U G29A U43C,0.05
15,A12U G19U C31U,0.14
16,C13A G22A U32C,0.1
17,C13A A16C G29A,0.08
18,A12U G21U G44A C46U,0.33
19,A12U G36U U38A,0.03
20,A12U U34G C45G C46G,0
21,A12U G19A U28G G30U,0.29
22,A12U G19C G40A,0.03
23,C13A C15U A24U G44U,0.03
24,C13A G35U A41G,0.05

row,Variant,self-cleavage
1,A12U G17A G27C C46G,0.05
2,C13A C18G A26C G40C,0.01
3,C13A C15A G17C G22C A24C,0.11
4,C13A G35A C46G,0.03
5,C13A G21A G36C U43C,0.03
6,C13A G36U A39G U43A,0.03
7,C13A G30A U38G G44A,0.05
8,A12U G33A C37U,0
9,C13A U20C G27U A41G,0.04
10,C13A G17U C46A,0.08
11,C13A C15A C18A,0.06
12,C13A C45G C46U,0.12
13,C13A A16C C31A C46A,0.08
14,C13A C18U G30A G33U U43A,0.04
15,A12U G17A A24C,0.05
16,C13A G17C G21A,0.01
17,C13A G17C G21U,0.1
18,C13A C37G U38C,0.09
19,C13A U28A C31A,0.01
20,C13A G30C U43C,0.03
21,C13A C15A C31U,0.06
22,C13A U20C U32C,0.02
23,C13A G17C U20G G27U U32A G35C,0.1
24,C13A U20A C45G,0.03

row,Variant,self-cleavage
1,C13A C42A U43A,0.05
2,A12U G27C G36U A39G,0.02
3,A12U G19A U43G,1.14
4,C13A U20G G22U A26C A39C,0.06
5,A12U G29U A41U,0.07
6,C13A C18G C23A C45U,0.11
7,C13A C42A G44A,0.07
8,C13A C42A G44C,0.09
9,C13A G36U G40C C42U,0.05
10,C13A C23U A26G,0.13
11,A12U G21C U28G,0.12
12,C13A G21U G36U,0.53
13,A12U G17U G35A,0.01
14,C13A G17C G36U,0.09
15,C13A U32G G36A,0.05
16,C13A C18U G22U C23A U28C U38C,0.06
17,C13A A14G G19C G30C,0.11
18,C13A G19C U20A U32G,0.01
19,C13A C18G A25C G30C C37A,0.02
20,C13A G27U U28C G29A A39G,0.02
21,C13A G21U A24C,0.04
22,C13A A14C G19A G21U C23A,0.02
23,C13A G19A C45U C46U,0.07
24,A12U G30C G36U,0.04

row,Variant,self-cleavage
1,C13A G30A C42U,0
2,C13A A16C G22C G40U C46U,0.06
3,C13A A16U G21C,0.06
4,C13A C15A C23A,0.05
5,C13A C37A G44C,0.54
6,C13A G19A A24U G36C,0.13
7,C13A G35U G44A,0.11
8,C13A C15U A24U U32G,0.89
9,C13A C18U G21C G33C C37A,0.05
10,C13A A14U G21C G35C A39U,0.02
11,C13A C15G A16U C18A G21A C23G C31A G44A,0.03
12,C13A G19C G27U U32C G36A,0.03
13,C13A C23A C45U,0.08
14,C13A U20A C37A U38A G44C,0.06
15,C13A C42G G44A,0.35
16,A12U G21C U38G C42U,0.02
17,A12U G22C G29C,0.21
18,A12U G17A G22A A26G G33A,0.07
19,A12U G19C C31G,0.17
20,A12U U32A C37G,0
21,C13A A39C C42G,0.03
22,C13A A39C C42U,0.48
23,C13A C18G C37A G44C,0.04

# From the RNAGym collection of RNA variant scans (doi:10.7554/elife.90254)
